Results as given in PMC9911399, “Two distinct binding modes provide the RNA-binding protein RbFox with extraordinary sequence specificity”.
Numbering of substitutions follows the chain as printed; changes in the protein carry UniProt numbers. The list shows a part of the results.

T1: RBFOX1 RRM (Homo sapiens, UniProt Q9NWB1 109-208)
T1 sequence: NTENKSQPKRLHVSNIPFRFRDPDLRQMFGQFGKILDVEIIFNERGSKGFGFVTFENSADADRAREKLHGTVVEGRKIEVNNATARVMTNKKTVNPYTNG

B1: CAUGCCU (DNA:RNA)
RNA: GGGAGACCGGAAUUCAGAUUGUCCCAUGCCUUUAAAUCCCGUCGUAGCCACCA
DNA 1: CAATCTGAATTCCGGTCTCCC
DNA 2: TGGTGGCTACGACGGGATT
B2: CAGGAGU (DNA:RNA)
RNA: B1 RNA with U27G, C29A, C30G
DNA 1: CAATCTGAATTCCGGTCTCCC
DNA 2: TGGTGGCTACGACGGGATT
B3: CACUUAU (DNA:RNA)
RNA: B1 RNA with U27C, G28U, C29U, C30A
DNA 1: CAATCTGAATTCCGGTCTCCC
DNA 2: TGGTGGCTACGACGGGATT
B4: AUGCCCC (DNA:RNA)
RNA: B1 RNA with C25A, A26U, U27G, G28C, U31C
DNA 1: CAATCTGAATTCCGGTCTCCC
DNA 2: TGGTGGCTACGACGGGATT
B5: AGGCUAU (DNA:RNA)
RNA: B1 RNA with C25A, A26G, U27G, G28C, C29U, C30A
DNA 1: CAATCTGAATTCCGGTCTCCC
DNA 2: TGGTGGCTACGACGGGATT
B6: AGGGACG (DNA:RNA)
RNA: B1 RNA with C25A, A26G, U27G, C29A, U31G
DNA 1: CAATCTGAATTCCGGTCTCCC
DNA 2: TGGTGGCTACGACGGGATT
B7: GUCCACC (DNA:RNA)
RNA: B1 RNA with C25G, A26U, U27C, G28C, C29A, U31C
DNA 1: CAATCTGAATTCCGGTCTCCC
DNA 2: TGGTGGCTACGACGGGATT
B8: CCCCGAU (DNA:RNA)
RNA: B1 RNA with A26C, U27C, G28C, C29G, C30A
DNA 1: CAATCTGAATTCCGGTCTCCC
DNA 2: TGGTGGCTACGACGGGATT
B9: ACCACAA (DNA:RNA)
RNA: B1 RNA with C25A, A26C, U27C, G28A, C30A, U31A
DNA 1: CAATCTGAATTCCGGTCTCCC
DNA 2: TGGTGGCTACGACGGGATT
B10: GCGUUCA (DNA:RNA)
RNA: B1 RNA with C25G, A26C, U27G, G28U, C29U, U31A
DNA 1: CAATCTGAATTCCGGTCTCCC
DNA 2: TGGTGGCTACGACGGGATT
B11: CCACAGC (DNA:RNA)
RNA: B1 RNA with A26C, U27A, G28C, C29A, C30G, U31C
DNA 1: CAATCTGAATTCCGGTCTCCC
DNA 2: TGGTGGCTACGACGGGATT
B12: UGAAUUU (DNA:RNA)
RNA: B1 RNA with C25U, A26G, U27A, G28A, C29U, C30U
DNA 1: CAATCTGAATTCCGGTCTCCC
DNA 2: TGGTGGCTACGACGGGATT
B13: UUUAGUA (DNA:RNA)
RNA: B1 RNA with C25U, A26U, G28A, C29G, C30U, U31A
DNA 1: CAATCTGAATTCCGGTCTCCC
DNA 2: TGGTGGCTACGACGGGATT
B14: GAACGAC (DNA:RNA)
RNA: B1 RNA with C25G, U27A, G28C, C29G, C30A, U31C
DNA 1: CAATCTGAATTCCGGTCTCCC
DNA 2: TGGTGGCTACGACGGGATT
B15: UGGUACU (DNA:RNA)
RNA: B1 RNA with C25U, A26G, U27G, G28U, C29A
DNA 1: CAATCTGAATTCCGGTCTCCC
DNA 2: TGGTGGCTACGACGGGATT
B16: CUCCACG (DNA:RNA)
RNA: B1 RNA with A26U, U27C, G28C, C29A, U31G
DNA 1: CAATCTGAATTCCGGTCTCCC
DNA 2: TGGTGGCTACGACGGGATT
B17: AAUACGU (DNA:RNA)
RNA: B1 RNA with C25A, G28A, C30G
DNA 1: CAATCTGAATTCCGGTCTCCC
DNA 2: TGGTGGCTACGACGGGATT
B18: UCUACAU (DNA:RNA)
RNA: B1 RNA with C25U, A26C, G28A, C30A
DNA 1: CAATCTGAATTCCGGTCTCCC
DNA 2: TGGTGGCTACGACGGGATT
B19: AUCUACA (DNA:RNA)
RNA: B1 RNA with C25A, A26U, U27C, G28U, C29A, U31A
DNA 1: CAATCTGAATTCCGGTCTCCC
DNA 2: TGGTGGCTACGACGGGATT
B20: ACGAGAG (DNA:RNA)
RNA: GGGAGACCGGAAUUCAGAUUGUCCACGAGAGUUAAAUCCCGUCGUAGCCACCA
DNA 1: CAATCTGAATTCCGGTCTCCC
DNA 2: TGGTGGCTACGACGGGATT
B21: GUUGUGG (DNA:RNA)
RNA: B1 RNA with C25G, A26U, C29U, C30G, U31G
DNA 1: CAATCTGAATTCCGGTCTCCC
DNA 2: TGGTGGCTACGACGGGATT
B22: GUGAGGG (DNA:RNA)
RNA: B20 RNA with A25G, C26U, A30G
DNA 1: CAATCTGAATTCCGGTCTCCC
DNA 2: TGGTGGCTACGACGGGATT
B23: GCCUAUG (DNA:RNA)
RNA: B20 RNA with A25G, G27C, A28U, G29A, A30U
DNA 1: CAATCTGAATTCCGGTCTCCC
DNA 2: TGGTGGCTACGACGGGATT
B24: CACAUCC (DNA:RNA)
RNA: B1 RNA with U27C, G28A, C29U, U31C
DNA 1: CAATCTGAATTCCGGTCTCCC
DNA 2: TGGTGGCTACGACGGGATT
B25: AGAUGCC (DNA:RNA)
RNA: B20 RNA with C26G, G27A, A28U, A30C, G31C
DNA 1: CAATCTGAATTCCGGTCTCCC
DNA 2: TGGTGGCTACGACGGGATT
B26: GCUCAGG (DNA:RNA)
RNA: B20 RNA with A25G, G27U, A28C, G29A, A30G
DNA 1: CAATCTGAATTCCGGTCTCCC
DNA 2: TGGTGGCTACGACGGGATT
B27: AAUAAGG (DNA:RNA)
RNA: B20 RNA with C26A, G27U, G29A, A30G
DNA 1: CAATCTGAATTCCGGTCTCCC
DNA 2: TGGTGGCTACGACGGGATT
B28: CGCUACC (DNA:RNA)
RNA: B1 RNA with A26G, U27C, G28U, C29A, U31C
DNA 1: CAATCTGAATTCCGGTCTCCC
DNA 2: TGGTGGCTACGACGGGATT
B29: ACGCGUG (DNA:RNA)
RNA: B20 RNA with A28C, A30U
DNA 1: CAATCTGAATTCCGGTCTCCC
DNA 2: TGGTGGCTACGACGGGATT
B30: GAUAGAU (DNA:RNA)
RNA: B20 RNA with A25G, C26A, G27U, G31U
DNA 1: CAATCTGAATTCCGGTCTCCC
DNA 2: TGGTGGCTACGACGGGATT
B31: GAAUCAC (DNA:RNA)
RNA: B1 RNA with C25G, U27A, G28U, C30A, U31C
DNA 1: CAATCTGAATTCCGGTCTCCC
DNA 2: TGGTGGCTACGACGGGATT

target: T1, RBFOX1 RRM; assay: EMSA; HiTS-Eq, 1 nM pool, 10 min; buffer printed only for the single-RNA assays: 10 mM Tris pH 7.5, 150 mM NaCl, 3.4 mM EDTA, 0.001% NP-40, 30 C; details: tags: His6 N-terminal (pET28a); label: 5' 32P
In short: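 A pool of RNA with 7 randomized nucleotides, 5′-radiolabelled and with DNA-annealed flanks, was equilibrated at 1 nM for 10 min in 50 µL with purified RbFox RRM, wild type or mutant, across increasing protein concentrations. Free RNA was separated by 8% native PAGE, excised, reverse-transcribed, barcoded by PCR and sequenced. Relative association constants were obtained from read-count changes of each RNA species versus the control reaction and normalised to the cognate motif.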

Row | Binder | binding signal
1 | B1 | 0.00956 KA relative to UGCAUGU
2 | B2 | 0.0128 KA relative to UGCAUGU
3 | B3 | 0.00212 KA relative to UGCAUGU
4 | B4 | 0.00742 KA relative to UGCAUGU
5 | B5 | 0.00892 KA relative to UGCAUGU
6 | B6 | 0.0145 KA relative to UGCAUGU
7 | B7 | 0.00352 KA relative to UGCAUGU
8 | B8 | 0.005 KA relative to UGCAUGU
9 | B9 | 0.00102 KA relative to UGCAUGU
10 | B10 | 0.0108 KA relative to UGCAUGU
11 | B11 | 0.00305 KA relative to UGCAUGU
12 | B12 | 0.0151 KA relative to UGCAUGU
13 | B13 | 0.0098 KA relative to UGCAUGU
14 | B14 | 0.0117 KA relative to UGCAUGU
15 | B15 | 0.0127 KA relative to UGCAUGU
16 | B16 | 0.00887 KA relative to UGCAUGU

Row | Binder | binding signal
17 | B17 | 0.00333 KA relative to UGCAUGU
18 | B18 | 0.00269 KA relative to UGCAUGU
19 | B19 | 0.000595 KA relative to UGCAUGU
20 | B20 | 0.0117 KA relative to UGCAUGU
21 | B21 | 0.0184 KA relative to UGCAUGU
22 | B22 | 0.00678 KA relative to UGCAUGU
23 | B23 | 0.0127 KA relative to UGCAUGU
24 | B24 | 0.000251 KA relative to UGCAUGU
25 | B25 | 0.00804 KA relative to UGCAUGU
26 | B26 | 0.0146 KA relative to UGCAUGU
27 | B27 | 0.00459 KA relative to UGCAUGU
28 | B28 | 0.00834 KA relative to UGCAUGU
29 | B29 | 0.0167 KA relative to UGCAUGU
30 | B30 | 0.0114 KA relative to UGCAUGU
31 | B31 | 0.00509 KA relative to UGCAUGU
